Over roughly 33,000 sequences, “E-score (-0.5 to 0.5)” has its median near -0.013; the highest 2% begin near 0.3. This is one part of the list.
target: T1, Msn1 (UniProt P22148); experiment: PBM E-score (8-mer binding enrichment) (E-score (-0.5 to 0.5)); higher = stronger / more preferred TF binding; most listed sequences are background and not binding sites; conditions: protein concentration: 200 nM; construct: GST-full length
T1 sequence: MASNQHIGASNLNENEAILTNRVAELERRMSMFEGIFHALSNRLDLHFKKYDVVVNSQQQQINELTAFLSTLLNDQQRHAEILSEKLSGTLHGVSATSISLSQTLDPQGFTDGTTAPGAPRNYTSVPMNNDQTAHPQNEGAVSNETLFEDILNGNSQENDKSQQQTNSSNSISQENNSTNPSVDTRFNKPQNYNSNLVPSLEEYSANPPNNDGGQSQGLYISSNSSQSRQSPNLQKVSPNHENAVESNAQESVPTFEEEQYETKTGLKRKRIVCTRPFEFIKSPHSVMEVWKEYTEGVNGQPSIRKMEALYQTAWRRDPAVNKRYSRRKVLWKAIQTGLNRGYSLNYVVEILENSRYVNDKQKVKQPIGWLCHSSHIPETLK
Procedure, shortened: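 Yeast transcription factors, full-length or as DNA-binding domains, were expressed with a GST tag using PURExpress in vitro transcription/translation. At about 100-200 nM they were applied to universal all-10-mer Agilent arrays, double-stranded by primer extension on fresh or once-stripped slides. Fluorescent anti-GST detected bound protein, and masliner normalised the scans. E-scores for ungapped eight-base words, pooled with reverse complements, came from the Universal PBM Analysis Suite.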

Sequence	PBM E-score
ACATATAA	0.276
AACTACGT	-0.0327
GTTAGCCA	-0.179
ATGACAGA	0.137
ATTACAGG	0.0652
ATCTAAGA	0.159
ACGTAACA	0.0355
AAGGGAAC	-0.291
ACGGCCGT	-0.204
GGACCGAA	0.155
CGCAATAA	0.212
TAGTGCAA	0.0976
CATAACGA	-0.0508
ATGTGTGC	-0.0431
CTTGCGGA	-0.0335
GGAAAGAC	-0.0443
TCTATTAA	0.0653
AGTCCAAG	0.0604
GAAATTTA	0.226
ATAAAAGG	0.0311
GCGACCTA	0.0106
AGGACAAC	0.436
GCTGGTGA	-0.0671
CCTAAGCG	-0.0144
GCAATACC	-0.00772

Sequence	PBM E-score
GGCAAAAC	-0.0158
CACGAAAC	-0.0336
CCGTGCCA	-0.27
TAGCAGCA	0.0532
CCGACGCG	-0.0341
TAATGGGA	-0.0259
ATATAAGC	-0.0877
ACATGCTC	0.028
ACGATATA	-0.0323
CACAGAAG	0.00761
CCTCCAAC	-0.208
TCATCCGA	0.183
ACGTGGCA	-0.257
AGGTTGTA	0.0888
ACCCACGG	-0.17
CCGCCTCG	-0.0878
TTCATAAA	0.0858
GGCGACGA	-0.071
CGGGCTTC	-0.144
ACAGGAAC	0.22
AAATGCGA	0.145
GCATTGTA	-0.16
GACTTATA	0.276
ATCTCGGA	0.241
AGTGTCGA	0.1

Sequence	PBM E-score
CAATTGTC	0.445
ACACTACG	0.049
AGGAGTCA	-0.0247
CGACGACA	0.17
CGTTCGAG	-0.0922
ACCACGGC	-0.0184
AATGTCGA	0.299
GGAAGAAC	-0.012
CAACAGTG	0.0581
ACACCCCA	-0.0684
CTACTACA	0.241
GAATTATA	0.161
CGATTGAG	-0.043
ACTATGAG	-0.147
ACGACTAC	-0.0678
GCTGTGAC	-0.0226
ATCCTCCA	-0.167
TCTGTTCA	-0.0656
CTATAGGA	0.13
ACACCTCA	-0.233
ACCGGCTC	-0.0223
GACGCACA	-0.0238
ATAACTAG	0.1
ACCCTGAG	-0.0157
CTATGATC	-0.0722

Sequence	PBM E-score
TCCGAAAA	0.11
ACTCTCGG	0.00291
CAAAGACC	-0.0488
GATGGACA	0.443
CACCCATA	-0.211
GAATCGGC	-0.00123
GTTCAAAA	-0.0457
CCAGGTTA	0.0256
GTGAGAGA	-0.0903
ACGTGACC	-0.0943
GATAAGCA	-0.0944
ACGCAGCA	-0.0115
AGGCACAC	-0.183
AGGGGTGC	-0.284
CATCTGAG	-0.00958
CGATACTA	0.0538
CACTATCG	0.0155
TGATGGCA	-0.317
ATGATTGC	0.0731
AGCTTCGG	0.075
CACTGGCC	-0.0854
CTCCGCAA	-0.108
CCATTAAA	0.0533
AGAAGATA	0.0458
CGTTTATA	0.0564

Sequence	PBM E-score
CTTCCGGC	-0.0143
CCTCGAGG	-0.159
CGACATCC	0.0825
AAGGCAAA	0.111
ACGTTCTA	-0.00887
AGATTTCC	0.00061
CAACGGGA	0.123
ACCGCTTG	0.0976
AGTAGAAT	0.112
CTGGTCTA	-0.169
GCCGACTA	0.0514
CTAAAATC	-0.0653
TGAAATAA	0.217
GCTTTTAA	-0.0535
CCGCATCG	-0.132
TACGAGAA	0.0646
TCGCGAAA	0.161
GTGGTACA	0.13
CGCGTGAC	0.0142
AACAGGAG	-0.156
AGACGAGC	-0.14
GCCTCCAA	-0.0938
CTGCGCTA	-0.285
GCCGGAGA	0.0857
CCATGACG	0.0865

Sequence	PBM E-score
GAATACCC	-0.167
CTTTATAC	0.0824
CAGACTCC	-0.176
ACAAGTAA	0.0641
CGCCAGAC	-0.0965
ACTAATCT	-0.0304
ACACGATC	0.0223
AGGCTGGA	-0.303
CATCCGCC	-0.0302
AGATTAGA	-0.0445
GAGCTGCA	-0.268
AAGTTCGT	0.0437
CCGTCATC	-0.127
ATGATTCA	-0.135
CGCGCCCC	-0.0871
ATGACCTA	0.0998
GAAAGTGC	-0.0805
GCTGAGCA	-0.0486
GAGCGACA	0.202
CTTTAAGA	0.229
GCCCGCCC	-0.28
CACAGTAA	0.189
GTTAACCA	0.0597
GTGCAAGA	0.0666
ATTATTCC	0.121

Sequence	PBM E-score
ACTCACAT	-0.18
ACGCAGAC	0.0449
ATGGGTGG	-0.145
ACCGTTCA	0.053
ATGTGACG	-0.223
ACATTTGG	0.177
GTAGCTGA	-0.235
GCACAGAC	0.153
CGAAGGTA	0.0151
ATAAAGGA	-0.00327
CTCGATAA	0.134
AAAAGAAC	0.0662
AGACACAT	0.197
CCCCGTCG	-0.299
ACGGCATG	0.0326
AGACACAG	0.131
CACCACGA	-0.00247
CAGTATGA	0.0362
CGGTATGC	-0.0412
AAAATAAT	0.174
GACCTGTA	0.0628
CCAATAAA	0.0626
